# According to PubChem BioAssay AID624417 (National Center for Advancing Translational Sciences (NCATS), 2012):
# In all, about 410,000 compounds went through this assay and about 6,400 (1.6%) were called active. Inconclusive means that the source gave no clear call. Such entries were picked first, then a sample of the others. Calls follow the shape of the dose curve; as a rule, active = well fitted inhibition curve with a large enough effect; inconclusive = small, poorly fitted or top-dose-only effect; inactive = no such curve, though single readings can be large or run the other way. Potencies of inconclusive entries are left out as doubtful fits.
# Molecular target: Glucagon-like peptide 1 receptor (Homo sapiens) (UniProt P43220)
# Assay: qHTS of GLP-1 Receptor Inverse Agonists (Inhibition Mode); also: nearly all actives have a fitted effect of over 55% in size
# Conditions: HEK293 GLP-1R CRE-luciferase, luminescence, 24 h, GLP-1R form is constitutively active; activity change, negative = inhibition: at 38.3 µM (top of the series) unless noted
# Procedure, shortened: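 GLP-1R inverse agonism mode: basal reporter luminescence in engineered HEK293 cells measured after one day of compound exposure at 37 deg C, with a 12 min room-temperature detection step.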
# % is scaled to controls: 0 for no effect and ±100 for the full control effect; potency is read from the fitted curve at half-maximal effect; tags tell the direction and shape of the fitted curve.
# Chain of UniProt P43220 (P43220 whole entry, looked up): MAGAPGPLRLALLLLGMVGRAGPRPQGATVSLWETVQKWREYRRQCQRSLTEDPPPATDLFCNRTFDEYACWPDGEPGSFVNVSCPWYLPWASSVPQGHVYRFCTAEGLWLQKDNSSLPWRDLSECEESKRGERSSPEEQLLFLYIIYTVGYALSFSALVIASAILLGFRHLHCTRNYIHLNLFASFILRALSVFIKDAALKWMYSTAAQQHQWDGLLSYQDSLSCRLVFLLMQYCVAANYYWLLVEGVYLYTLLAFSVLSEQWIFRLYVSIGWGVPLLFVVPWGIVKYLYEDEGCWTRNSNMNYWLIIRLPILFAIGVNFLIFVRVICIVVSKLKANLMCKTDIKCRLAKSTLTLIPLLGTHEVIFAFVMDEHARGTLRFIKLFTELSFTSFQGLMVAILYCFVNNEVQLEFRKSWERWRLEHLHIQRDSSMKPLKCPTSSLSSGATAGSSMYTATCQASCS
SMILES,Potency,"activity change, negative = inhibition"
N#CC1=C2SCN(Cc3ccccc3)CN2C(=O)CC1c1ccccc1F (centres undefined),"inconclusive [inhibitor, single point]",
Cc1ccc(-n2[nH]c(C)c(/C=N/Nc3ccc([N+](=O)[O-])cc3[N+](=O)[O-])c2=O)cc1,,inactive: -2.96%
CCN(c1ccccc1)S(=O)(=O)c1ccc(C(=O)Nc2c(C)n(C)n(-c3ccccc3)c2=O)cc1,,inactive: -32.8%
O=C(NC(c1ccccc1)c1ccsc1)C1CCN(Cc2ccc(Oc3ccccc3)cc2)CC1 (centres undefined),"inconclusive [inhibitor, single point]",
O=C1/C(=C/c2cccnc2)CC/C1=C\c1cccnc1,,inactive: 4.68%
COc1cccc(-c2csc(N3CCN(C(=S)NCC(C)C)CC3)n2)c1,"inconclusive [inhibitor, partial curve, poor fit]",
O=C1COc2ccc(-c3csc(NCCc4ccccc4)n3)cc2N1,"inconclusive [inhibitor, single point]",
O=C(c1ccccc1)C1(c2ccccc2)OC1c1ccccc1 (centres undefined),"inconclusive [inhibitor, partial curve, poor fit]",
COc1cc(C)ccc1OCCSc1nc2ccc(NC(C)=O)cc2s1,,inactive: -15.1%
Nc1[nH]n(-c2ccccc2)c(=O)c1N=Nc1ccc2c(c1)OCCO2,"inconclusive [inhibitor, single point]",
Cc1ccc(-c2ccc(/C=N/NC(=O)CN3CCCC3)o2)cc1Cl,"inconclusive [inhibitor, partial curve, poor fit]",
CC(C)(C)n1nnnc1C(c1cc2ccccc2o1)N1CCCCC1 (centres undefined),,inactive: -10.7%
Cc1ccc(CCN2CC(C(=O)NCCCN(C)Cc3ccccc3)CC2=O)cc1 (centres undefined),"inconclusive [inhibitor, single point]",
Cc1cccc(N2CC(C(=O)Nc3ccc(S(=O)(=O)N4CCCCC4)cc3)CC2=O)c1C (centres undefined),"inconclusive [inhibitor, partial curve, poor fit]",
CSc1ccccc1NC(=O)C(C)N(C)CC(=O)N1CCN(Cc2ccccc2)CC1 (centres undefined),"inconclusive [inhibitor, single point]",
COc1ccc(S(=O)(=O)NCC2CCCN(Cc3ccc(C)o3)C2)cc1 (centres undefined),"inconclusive [inhibitor, single point]",
C=CCNC(=S)/N=c1/scc(C)n1C,"inconclusive [inhibitor, single point]",
O=Nc1ccc(NOC(=O)c2ccccc2Br)cc1,,inactive: 5.48%
CC(C)(C)c1cc(NC(=O)COC(=O)c2ccc(O)cc2O)n(-c2ccccc2)n1,"inconclusive [inhibitor, single point]",
